About 64,000 (15%) of roughly 420,000 compounds were called active. Inconclusive means that the source gave no clear call. Such entries were picked first, then a sample of the others. Calls come from the whole dose curve; as a rule, active = well fitted inhibition curve with a large enough effect; inconclusive = small, poorly fitted or top-dose-only effect; inactive = flat fitted curve, though single readings scatter. Potencies of inconclusive entries are left out as doubtful fits.
test: qHTS for Inhibitors of human tyrosyl-DNA phosphodiesterase 1 (TDP1): qHTS in cells in absence of CPT; conditions: DT40 Tdp1-/- hTDP1 cells, no CPT, ATP luminescence, 48 h; activity change, negative = growth inhibition: at 46.2 µM (top of the series) unless noted; note: nearly all actives have a fitted effect of over 55% in size
In short: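 Camptothecin absent (DMSO only). Human TDP1-complemented DT40 knockout cells, 400 cells/well, 37 °C for minimum 48 hr; ATP measured via CellTiter-Glo, 30 min dark incubation, luminescence.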
% is set by controls: 0 for no effect and ±100 for the full control effect; potency is the fitted concentration of half-maximal effect; tags give direction and shape of the fitted curve.

Structure (SMILES)	activity change, negative = growth inhibition	Potency
CCOCCn1c(N2CCCC2)nc2c1c(=O)[nH]c(=O)n2C	inactive: 4.1%	–
COc1ccc(C(=O)NC(=S)Nc2ccc3c(c2)Cc2ccccc2-3)cc1	inconclusive: -32% [inhibitor]	–
CCCC(=O)Nc1c2c(nn1-c1ccc([N+](=O)[O-])cc1)CS(=O)(=O)C2	inactive: -7.05%	–
O=C(Nc1ccc(S(=O)(=O)N2CCCC2)cc1)Nc1ccc(F)cc1F	–	active: 29.1 µM
COC(=O)c1ccccc1NC(=O)N1CCN(C(=O)c2ccco2)CC1	inactive: -1.04%	–
COc1cc2nc(=S)n3[nH]c(CCn4c(C)nc5ccccc54)nc3c2cc1OC	inactive: -3.04%	–
Nn1c(-c2ccccc2)nc2cc(Cl)ccc2c1=O	inactive: -17.5%	–
Cc1cc(OCC(=O)Nc2cc(C(C)(C)C)on2)ccc1[N+](=O)[O-]	inactive: -29.4%	–
CCOC(=O)N1CCN(C(=O)c2ccccc2N(Cc2ccccc2)S(=O)(=O)c2ccccc2)CC1	–	active: 20.6 µM
O=C(c1ccccc1)c1ccc2nc(Nc3cc(Cl)ccc3O)c3nncn3c2c1	–	inconclusive [inhibitor, full curve]
Nc1nc2ccc([N+](=O)[O-])cc2[nH]1	inactive: -25.4%	–
CCn1c(=O)c(C(=O)NNC(=O)c2ccc(Cl)cc2Cl)c(O)c2ccccc21	–	inconclusive [inhibitor, single point]
O=C(C1CCC1)N1CCc2cc(S(=O)(=O)NCc3ccco3)ccc21	–	inconclusive [inhibitor, single point]
COc1ccc2c(c1)c1c(c(=O)n(-c3ccccc3C)c(=O)n1CC(=O)N1CCCC1)n2C	inconclusive: -26.3% [inhibitor]	–
CN(C1CCCCC1)S(=O)(=O)c1cc2c(cc1Cl)NC(=O)CO2	inactive: 7.61%	–
CCc1nnc(NC(=O)CSc2nnc(CSc3nc(C)cc(C)n3)o2)s1	inactive: -5.57%	–
CCC1(C2CCN(C(=O)c3ccc4ccccc4c3)CC2)NC(=O)N(CCc2scnc2C)C1=O (centres undefined)	inactive: -20.2%	–
Cn1c(=O)c2cc(NC(=O)NCCc3cccs3)ccc2n1-c1ccc(C(C)(C)C)cc1	–	inconclusive [inhibitor, single point]
O=C(NCC1CC1)[C@]1(C(F)(F)F)C[C@H](CCC2CCCCC2)CCCO1	–	active: 23.1 µM
O=C(Nc1ccc(CN2CCOCC2)cc1)c1ccc(-c2ccc(Br)cc2)o1	–	active: 18.4 µM
COc1ccc(NC(=S)Nc2ccccn2)c(OC)c1	–	inconclusive [inhibitor, single point]
Cc1ccc(S(=O)(=O)Oc2ccc(/C=N/NC(=O)c3nn(C)cc3[N+](=O)[O-])cc2)cc1	–	inconclusive [inhibitor, single point]
COCCNC(=S)NCCCNc1nc2cc3c(cc2cc1C#N)OCO3	inactive: -23.9%	–
Cc1ccc(CNC(=O)c2cc(C3CC3)nc3c2cnn3C(C)C)cc1	–	active: 18.4 µM
Cc1cccc(C)c1Nc1n[nH]c(=S)s1	–	inconclusive [inhibitor, single point]

Structure (SMILES)	activity change, negative = growth inhibition	Potency
CN1CCN(c2nc3ccccc3nc2C(C#N)C(=O)OC2CCCCC2)CC1 (centres undefined)	–	inconclusive [inhibitor, single point]
COC(=O)C1=CN(CC2CCCO2)C=C(C(=O)OC)C1c1ccccc1C(F)(F)F (centres undefined)	inactive: -4.31%	–
COc1cccc(CN2C(=O)CN(C3CCCCC3)C(=O)C2c2ccc(OC)c(OC)c2)c1 (centres undefined)	–	inconclusive [inhibitor, partial curve]
O=C(CCCN1C(=O)c2cccc3cccc(c23)C1=O)N1CCN(c2ccccc2)CC1	–	inconclusive [inhibitor, single point]
O=C(Nc1cccc(Cl)c1)Nc1csc([N+](=O)[O-])c1	–	active: 2.31 µM
O=C(OCc1ccccc1)N1CCC2CC1c1cc(/C=C/CCCSc3ncccn3)ccc12 (centres undefined)	–	active: 23.1 µM
CCC(C)Sc1c(C(C)C)cnc2c1c(=O)n(C)c(=O)n2C (centres undefined)	–	active: 13 µM
Cc1ccc(S(=O)(=O)N2CCN(c3nc(-n4c(=O)[nH]c5ccccc54)nc4ccccc34)CC2)cc1	–	active: 12.6 µM
Cc1ccc(CNC(=O)COc2ccccc2-c2ccccc2)cc1	–	inconclusive [inhibitor, single point]
COc1cc(CNC2CCCCC2)c(Br)cc1OC1CCCC1	–	inconclusive [inhibitor, single point]
S=c1[nH]nc(C2CCCCC2)n1/N=C/c1ccccc1Br	inactive: -19%	–
Cc1sc(-c2ccncc2)nc1OC(=O)c1ccccc1	inactive: -22.8%	–
CCOc1cc(C)cc2oc(=O)cc(-c3ccccc3)c12	–	active: 20.6 µM
COC(=O)[C@@]12C[C@@H](CC(=O)N3CCC(c4ccccc4)CC3)C(=O)N(Cc3ccc4c(c3)OCO4)C1=CCC(C)(C)C2	–	inconclusive [inhibitor, single point]
Cc1cc2cc(CCNC(=O)c3cccs3)c(=O)[nH]c2cc1C	–	inconclusive [inhibitor, single point]
Cc1ccccc1C(=O)Nc1nnc(SCC(=O)NCc2ccco2)s1	inactive: -4.71%	–
COC(=O)COc1ccc(S(=O)(=O)Nc2ccc3c(c2)OCCO3)cc1C	–	inconclusive [inhibitor, single point]
COc1ccc(-n2c(/C=C/c3c(C)[nH]c4ccccc34)nc3ccccc3c2=O)cc1	–	inconclusive [inhibitor, full curve]
COc1ccc(C(C(=O)NC(C)(C)C)N(C(=O)CCC(=O)Nc2cc(C)on2)c2ccc(C)c(C)c2)cc1 (centres undefined)	–	inconclusive [inhibitor, single point]
CCOC(=O)CN(Cc1ccc(OC)c(OC)c1)S(=O)(=O)c1ccc(OC)cc1	inactive: -19.3%	–
Cc1ccc(NC(=S)N(CCCN2CCC(C)CC2)Cc2ccco2)cc1C	–	inconclusive [inhibitor, single point]
COc1ccccc1Cn1c(C)c(C(=O)NCc2ccc3c(c2)OCCO3)sc1=O	–	inconclusive [inhibitor, single point]
CC1=C(C(=O)OC(C)C)C(C)C(C(=O)OC(C)C)=C(C)N1	–	inconclusive [inhibitor, single point]
c1ccc(-c2ccc(CN3CCSCC3)cc2)cc1	inactive: -24.5%	–
COc1ccccc1C(CNC(=O)c1cccc(NS(=O)(=O)c2ccc(C)c(F)c2)c1)N(C)C (centres undefined)	–	inconclusive [inhibitor, single point]

Structure (SMILES)	activity change, negative = growth inhibition	Potency
CCOc1cc(/C=N/NC(=O)OC)ccc1OCCSc1ccc(Cl)cc1	inactive: -27.1%	–
O=C(COC(=O)c1ccccc1NCCO)Nc1cc(C(F)(F)F)ccc1N1CCOCC1	–	inconclusive [inhibitor, single point]
CS(=O)(=O)c1ccc2c(c1)SC1=NC(=O)/C(=C/c3ccco3)C(=N)N12	–	inconclusive [inhibitor, single point]
Cc1cc2c(cc1C)-n1nnnc1C(N1CCN(c3ccccc3F)CC1)C(=O)N2 (centres undefined)	–	active: 18.4 µM
CCN1C(=O)/C(=C\c2cn(-c3ccccc3)nc2-c2cccnc2)SC1=S	–	inconclusive [inhibitor, single point]
Cc1cccc(C)c1NC(=S)N(CCCN1CCN(C)CC1)Cc1cccs1	inactive: 9.88%	–
COc1ccc(N2C(=O)CCC2=O)c(OC)c1	inactive: 25.6%	–
COc1ccc(C)cc1N(CC(=O)NC1CCCC1)C(=O)CCC(=O)Nc1nc(C)cs1	–	inconclusive [inhibitor, single point]
Cc1ccc(CNC(=O)CCC2CCCN(Cc3cccc4ncccc34)C2)o1 (centres undefined)	–	inconclusive [inhibitor, single point]
COc1ccc(-n2ncc3c(N4CCCCC4)ncnc32)cc1	–	inconclusive [inhibitor, single point]
COc1ccccc1C(=O)Nc1ccc(OCc2cc(=O)n3ccc(C)cc3n2)cc1	–	inconclusive [inhibitor, partial curve]
COCc1cc(C)nc2sc3c(c12)NC(c1ccc(O)cc1)N(c1ccc(C)cc1)C3=O (centres undefined)	–	active: 18.4 µM
NC(Cc1ccc(F)cc1)c1csc(Nc2ccc(C(=O)c3ccccc3)cc2)n1 (centres undefined)	–	inconclusive [inhibitor, single point]
COc1ccc(NC(=O)N2CCC3(CC2)CCN(S(C)(=O)=O)CC3)cc1	inactive: -7.21%	–
COCCCn1c(SCc2nnc(-c3ccc(OC)c(OC)c3)o2)nc2ccccc2c1=O	–	active: 23.1 µM
CNC(=S)N(Cc1cc2ccc(OC)cc2[nH]c1=O)CC1CCCO1 (centres undefined)	inactive: 1.79%	–
O=C(Cn1c2ncccc2c(=O)n1-c1ccccc1)Nc1ccc(Cl)cc1C(F)(F)F	–	inconclusive [inhibitor, single point]
COc1ccc(C)cc1-n1c(-c2ccc(C)cc2)cc2c1CC(C)(C)CC2=O	–	active: 8.2 µM
CCC1CCCCN1CCCNC(=O)CSc1nc2nc(C)c(Cc3ccc(C)cc3)c(C)n2n1 (centres undefined)	–	inconclusive [inhibitor, partial curve]
CCOC(=O)Cc1cc(=O)n2[nH]cc(-c3cccc(Br)c3)c2n1	–	active: 23.1 µM
CCC(C)NC(=O)[C@H](CSCc1ccccc1)N1Cc2ccccc2C1=O (some centres undefined)	inactive: -24.3%	–
Cc1nn(C(=O)c2ccccc2)c(C)c1S(=O)(=O)N1CCCCCC1	inactive: -23.5%	–
CSCCC(NS(=O)(=O)c1cccc(C(F)(F)F)c1)C(=O)N(C)Cc1ccc2c(c1)OCCO2 (centres undefined)	–	inconclusive [inhibitor, single point]
COC(=O)c1ccc(NC(c2ccc(Cl)cc2)P(=O)(OC)OC)cc1 (centres undefined)	–	inconclusive [inhibitor, single point]

From PubChem BioAssay AID686978 (National Center for Advancing Translational Sciences (NCATS), 2013)
